The list shows a part of the results. The data describe in vitro nicking of single-stranded DNA by Rep domains for 1 h at 37 °C with 3 µM enzyme; only the middle of the 90-letter strands is printed. Uncut reads are compared with the no-enzyme pool on a log2 scale; more negative means more cut, near 0 not cut, and no call is made. Reads are scaled to the total; where an enzyme cuts many sequences, the uncut ones exceed 0.
These sequences were tested on T1, Rep nickase domain of Muscovy duck circovirus (assay: uncleaved DNA left, log2 of reads against the no-enzyme library (log2 ratio); higher = less cleavage (more negative = more Rep cleavage of the k-mer); sequences stand for … in CTCGTCCG…ACCGGAGA).
T1 sequence (protein, residues 1-111, tag omitted): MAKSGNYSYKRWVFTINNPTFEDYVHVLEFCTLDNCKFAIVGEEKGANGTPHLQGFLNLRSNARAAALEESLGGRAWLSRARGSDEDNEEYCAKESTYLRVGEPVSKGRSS
Experimental: (§1)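 A pool of 90-nt single-stranded DNAs with seven random bases just before the constant AC of the nick site (name = the seven bases) was cut by 3 µM recombinant His6-SUMO-tagged Rep nickase domain (300 nM DNA, 50 mM HEPES pH 8.0, 50 mM NaCl, 1 mM MnCl2, 1 h, 37 °C, three replicates). Uncut DNA was amplified and sequenced.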

Row | Sequence | uncleaved DNA left (log2)
1 | CTTCGTA | -0.0162
2 | CTCCATG | 0.0235
3 | AGGCAGC | -0.00429
4 | GTAATAC | -0.00941
5 | GTGTCGA | 0.051
6 | CAAGGCC | 0.0367
7 | TCCGATC | 0.0354
8 | CACGCTA | 0.0838
9 | GACCCCT | 0.0439
10 | GGGTATA | 0.00943
11 | CAGCCTC | -0.167
12 | CACCGAT | 0.0752
13 | GGCTCGG | 0.0208
14 | CGCCTCC | 0.0695
15 | CATTGAG | 0.0475
16 | TAGTGTC | 0.121
17 | GCCGCTA | -0.0215
18 | TGGGAGA | -0.0719
19 | CAGTTAT | -0.422
20 | AGGACGT | 0.0555

Row | Sequence | uncleaved DNA left (log2)
21 | CCATCAA | -0.00811
22 | CGATAAA | 0.102
23 | GGTGGTG | 0.152
24 | GACCGTG | -0.127
25 | CGTGCAT | -0.136
26 | GCATAGC | 0.0958
27 | CATCACC | -0.00518
28 | GTGCGGC | 0.132
29 | GTCAGGC | 0.00605
30 | GACAGAG | -0.0354
31 | AACTCTC | -0.34
32 | CGAACTG | -0.0245
33 | GCTCTCT | -0.0997
34 | CCTCCAG | 0.0952
35 | GCCAATG | 0.122
36 | GCATGGC | -0.105
37 | TTGAAAC | 0.0659
38 | GACCCCA | 0.000401
39 | GGACGAC | 0.0162
40 | TCGGGCG | 0.0635

What follows are sequences tested on T2, Rep nickase domain of banana bunchy top virus in the same assay as above.
T2 sequence (protein, residues 1-94, tag omitted): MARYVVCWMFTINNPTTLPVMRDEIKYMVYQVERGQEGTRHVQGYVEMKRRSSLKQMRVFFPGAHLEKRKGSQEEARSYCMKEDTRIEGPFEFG
Experimental: as §1

Row | Sequence | uncleaved DNA left (log2)
41 | CTTCGTA | 0.0126
42 | CTCCATG | -0.00387
43 | AGGCAGC | -0.0213
44 | GTAATAC | 0.179
45 | GTGTCGA | 0.00985
46 | CAAGGCC | -0.0356
47 | TCCGATC | -0.0379
48 | CACGCTA | -0.0728
49 | GACCCCT | 0.000842
50 | GGGTATA | 0.0393
51 | CAGCCTC | -0.164
52 | CACCGAT | -0.0882
53 | GGCTCGG | 0.128
54 | CGCCTCC | -0.0156
55 | CATTGAG | 0.106
56 | TAGTGTC | -0.06
57 | GCCGCTA | -0.0438
58 | TGGGAGA | 0.0625
59 | CAGTTAT | -2.52
60 | AGGACGT | 0.0282

Row | Sequence | uncleaved DNA left (log2)
61 | CCATCAA | 0.187
62 | CGATAAA | 0.207
63 | GGTGGTG | -0.0395
64 | GACCGTG | -0.101
65 | CGTGCAT | -0.111
66 | GCATAGC | -0.0506
67 | CATCACC | 0.0906
68 | GTGCGGC | 0.0524
69 | GTCAGGC | 0.073
70 | GACAGAG | 0.0885
71 | AACTCTC | -0.156
72 | CGAACTG | 0.0418
73 | GCTCTCT | -0.0328
74 | CCTCCAG | 0.0509
75 | GCCAATG | -0.00968
76 | GCATGGC | -0.0786
77 | TTGAAAC | 0.0451
78 | GACCCCA | 0.0556
79 | GGACGAC | 0.0206
80 | TCGGGCG | 0.0648

The sequences below were run on T3, Rep nickase domain of cabbage leaf curl virus in the same assay as above.
T3 sequence (protein, residues 1-116, tag omitted): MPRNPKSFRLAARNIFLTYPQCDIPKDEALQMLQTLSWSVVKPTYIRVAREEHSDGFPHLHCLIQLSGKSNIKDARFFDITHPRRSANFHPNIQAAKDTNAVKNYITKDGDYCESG
Experimental: as §1

Row | Sequence | uncleaved DNA left (log2)
81 | CTTCGTA | -0.2
82 | CTCCATG | -0.707
83 | AGGCAGC | 0.156
84 | GTAATAC | 0.249
85 | GTGTCGA | 0.184
86 | CAAGGCC | -0.00605
87 | TCCGATC | 0.181
88 | CACGCTA | -0.156
89 | GACCCCT | 0.0359
90 | GGGTATA | 0.803
91 | CAGCCTC | -0.101
92 | CACCGAT | 0.0697
93 | GGCTCGG | 0.471
94 | CGCCTCC | 0.141
95 | CATTGAG | 0.178
96 | TAGTGTC | -0.0426
97 | GCCGCTA | -0.00936
98 | TGGGAGA | 0.828
99 | CAGTTAT | -0.0447
100 | AGGACGT | 0.786

Row | Sequence | uncleaved DNA left (log2)
101 | CCATCAA | 0.204
102 | CGATAAA | -0.0756
103 | GGTGGTG | -0.227
104 | GACCGTG | -0.514
105 | CGTGCAT | -0.0698
106 | GCATAGC | -0.402
107 | CATCACC | -0.0503
108 | GTGCGGC | 0.0448
109 | GTCAGGC | 0.32
110 | GACAGAG | -0.0962
111 | AACTCTC | -0.131
112 | CGAACTG | 0.0667
113 | GCTCTCT | -0.0779
114 | CCTCCAG | -0.592
115 | GCCAATG | -0.227
116 | GCATGGC | -0.492
117 | TTGAAAC | 0.168
118 | GACCCCA | 0.706
119 | GGACGAC | 0.663
120 | TCGGGCG | -0.631

What follows are sequences tested on T4, Rep nickase domain of chickpea chlorotic dwarf virus in the same assay as above.
T4 sequence (protein, residues 1-124, tag omitted): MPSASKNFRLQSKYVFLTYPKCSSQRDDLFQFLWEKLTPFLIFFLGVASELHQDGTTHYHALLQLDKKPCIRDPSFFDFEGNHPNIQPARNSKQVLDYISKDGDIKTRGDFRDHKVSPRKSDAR
Experimental: as §1

Row | Sequence | uncleaved DNA left (log2)
121 | CTTCGTA | -1.18
122 | CTCCATG | -0.737
123 | AGGCAGC | 0.549
124 | GTAATAC | 0.737
125 | GTGTCGA | 0.462
126 | CAAGGCC | 0.201
127 | TCCGATC | 0.082
128 | CACGCTA | -1.9
129 | GACCCCT | -1.91
130 | GGGTATA | 1.92
131 | CAGCCTC | -0.167
132 | CACCGAT | -0.316
133 | GGCTCGG | 1.21
134 | CGCCTCC | 0.246
135 | CATTGAG | 1.59
136 | TAGTGTC | -0.454
137 | GCCGCTA | -0.0726
138 | TGGGAGA | 1.66
139 | CAGTTAT | -1.51
140 | AGGACGT | 1.9

Row | Sequence | uncleaved DNA left (log2)
141 | CCATCAA | 0.431
142 | CGATAAA | 0.13
143 | GGTGGTG | 0.0476
144 | GACCGTG | -0.539
145 | CGTGCAT | 0.325
146 | GCATAGC | -0.249
147 | CATCACC | -0.629
148 | GTGCGGC | 0.539
149 | GTCAGGC | 0.879
150 | GACAGAG | 0.179
151 | AACTCTC | -0.594
152 | CGAACTG | 0.708
153 | GCTCTCT | -1.14
154 | CCTCCAG | -0.424
155 | GCCAATG | 0.104
156 | GCATGGC | -0.391
157 | TTGAAAC | -0.41
158 | GACCCCA | 0.815
159 | GGACGAC | 1.75
160 | TCGGGCG | -0.261

What follows are sequences tested on T5, Rep nickase domain of faba bean necrotic yellows virus in the same assay as above.
T5 sequence (protein, residues 1-98, tag omitted): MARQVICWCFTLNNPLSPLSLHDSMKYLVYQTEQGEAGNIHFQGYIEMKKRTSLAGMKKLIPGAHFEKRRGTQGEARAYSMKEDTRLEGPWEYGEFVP
Experimental: as §1

Row | Sequence | uncleaved DNA left (log2)
161 | CTTCGTA | 0.0168
162 | CTCCATG | -0.26
163 | AGGCAGC | 0.0266
164 | GTAATAC | 0.0825
165 | GTGTCGA | -0.0608
166 | CAAGGCC | -0.0403
167 | TCCGATC | -0.0411
168 | CACGCTA | -0.0863
169 | GACCCCT | -0.0666
170 | GGGTATA | -0.0173
171 | CAGCCTC | -0.0974
172 | CACCGAT | -0.0238
173 | GGCTCGG | 0.0315
174 | CGCCTCC | 0.000181
175 | CATTGAG | 0.223
176 | TAGTGTC | -0.863
177 | GCCGCTA | -0.0384
178 | TGGGAGA | 0.0963
179 | CAGTTAT | -0.813
180 | AGGACGT | -0.0335

Row | Sequence | uncleaved DNA left (log2)
181 | CCATCAA | 0.083
182 | CGATAAA | 0.105
183 | GGTGGTG | 0.0577
184 | GACCGTG | -0.127
185 | CGTGCAT | -0.126
186 | GCATAGC | 0.11
187 | CATCACC | 0.0642
188 | GTGCGGC | 0.0135
189 | GTCAGGC | -0.0528
190 | GACAGAG | -0.0973
191 | AACTCTC | 0.00426
192 | CGAACTG | 0.0588
193 | GCTCTCT | -0.173
194 | CCTCCAG | 0.00561
195 | GCCAATG | 0.148
196 | GCATGGC | -0.0705
197 | TTGAAAC | 0.0984
198 | GACCCCA | -0.0713
199 | GGACGAC | -0.184
200 | TCGGGCG | 0.109
